The experiment deals with EFO27-CI58 cells. As to the kind of experiment: ovarian cancer xenograft study (EFO27-CI58 in SCID mice). Type of experiment: in vivo, CB-17 SCID mice. The following applies: U2-39 25 mg/kg i.v. on days 17, 20 and 23, monotherapy; compared to vehicle control and cetuximab monotherapy; mean tumor volume ~550 mm3 at start; FIG. 1. The procedure:
In order to evaluate the anti-tumor efficacy of the antibody of invention administered as a monotherapy or in combination with Erlotinib, an ovarian cancer xenograft study was conducted.
The human ovarian adenocarcinoma cell line EFO27 was genetically engineered to overexpress HB-EGF. The clone EFO27-CI58 was chosen for xenograft studies in SCID mice. 3×10^6 EFO27-CI58 cells in 100 μl PBS/Matrigel (1:1) were injected subcutaneously into the left flank of 7-8 week old female CB-17 SCID mice (approximate weight, 30 g). On day 16, after mean tumor volumes had reached approximately 550 mm3, 60 mice were randomized into 5 groups with 12 animals each. On day 17, treatment with U2-39, cetuximab (Erbitux®), Erlotinib (Tarceva®), vehicle control, PBS, or a combination of U2-39 and Erlotinib was initiated. PBS (10 ml/kg), U2-39 (25 mg/kg) and cetuximab (25 mg/kg) were administered intravenously (i.v.) on days 17, 20 and 23 (1, 4 and 7 days after randomization), whereas erlotinib (60 mg/kg) was administered once daily orally (p.o.) from day 17 today 24 either alone or in combination with U2-39. Prior to each treatment on days 17, 20 and 23, tumor volumes were determined by calliper measurement. Following calliper measurement, tumor size was calculated according to the formula W2×L/2 with L=length and W=the perpendicular width of the tumor.

B1: U2-39: anti-HB-EGF antibody; light chain SEQ ID NO: 1, heavy chain SEQ ID NO: 2; VL SEQ ID NO: 30, VH SEQ ID NO: 81 (antibody, listed as Homo Sapiens)
heavy: QVQLQESGPGLVKPSQTLSLNCTVSGGSISSGGYYWSWIRQHPGKGLEWIGYIHYSGSTYYNPSLKSRITISADTSKNQFSLKLNSVTAADTAVYYCARDRGGGDYGRMDVWGQGTTVTVSSASTKGPSVFPLAPCSRSTSESTAALGCLVKDYFPEPVTVSWNSGALTSGVHTFPAVLQSSGLYSLSSVVTVPSSNFGTQTYTCNVDHKPSNTKVDKTVERKCCVECPPCPAPPVAGPSVFLFPPKPKDTLMISRTPEVTCVVVDVSHEDPEVQFNWYVDGVEVHNAKTKPREEQFNSTFRVVSVLTVVHQDWLNGKEYKCKVSNKGLPAPIEKTISKTKGQPREPQVYTLPPSREEMTKNQVSLTCLVKGFYPSDIAVEWESNGQPENNYKTTPPMLDSDGSFFLYSKLTVDKSRWQQGNVFSCSVMHEALHNHYTQKSLSLSPGK
light: DIQMTQSPSSLSASVGDRVTITCRASQSISTYLNWYQQKPGKAPKFLIYAASSLQSGVPSRFSGSGSGTDFTLTISSLQPEDFAAYYCQQSHSAPFTFGPGTKVDIKRTVAAPSVFIFPPSDEQLKSGTASVVCLLNNFYPREAKVQWKVDNALQSGNSQESVTEQDSKDSTYSLSSTLTLSKADYEKHKVYACEVTHQGLSSPVTKSFNRGEC
Take B1: the tumor growth result is reported as “significantly reduces EFO27-CL58 tumor growth”.

These data come from patent US20150037336A1, “COMBINATION OF HB-EGF BINDING PROTEIN AND EGFR INHIBITOR” (U3 PHARMA GMBH, priority 2012, published 2015).
